Assay results as given in patent US20220340635A1 (ZHEJIANG DOER BIOLOGICS, published 2022).

Columns and labels:
Assay in all cases: cell-based or functional assay
β-klotho (KLB) = molecular target: β-klotho (KLB)
GCGR [1] = molecular target: GCGR
human GLP-1R [2] = molecular target: T1, human GLP-1R (human, UniProt P43220)
GCGR [3] = molecular target: GCGR; remark: listed apart in the source
human GLP-1R [4] = molecular target: T1, human GLP-1R; remark: listed apart in the source

B1: A123L1F9L5M2 (Fc fusion)
chain: YSEGTFTSDYSKYLDEEAAQDFVQWLLDGGPSSGAPPPSGGGGSGGGGSGGGGSA[letters of human IgG1 Fc with changes omitted]GGGGAGGGGAGGGGAHPIPDSSPLLQFGGQVRQRYLYTDDAQQTEAHLEIREDGTVGGAADQSPESLLQLKALKPGVIQILGVKTSRFLCQRPDGALYGSLHFDPEACSFRERLLEDGYNVYQSEAHGLPLHCPGNKSPHRDPAPRGPCRFLPLPGLPPALPEPPGILAPQPPDVGSSDPLSMVGGSQGRSPSYES
- FGF21 activity (EC50, nM) (β-klotho (KLB)): 0.74 nM
- GCGR agonist activity (EC50, nM) (GCGR [1]): 41.2 nM
- GLP-1 R agonist activity (EC50, nM) (human GLP-1R [2]): 51.3 nM

B2: A137L1F9L5M2 (Fc fusion)
chain: YSEGTFTSDYSKYLDSQAAQDFVQWLLDGGPSSGAPPPSGGGGSGGGGSGGGGSA[letters of human IgG1 Fc with changes omitted]GGGGAGGGGAGGGGAHPIPDSSPLLQFGGQVRQRYLYTDDAQQTEAHLEIREDGTVGGAADQSPESLLQLKALKPGVIQILGVKTSRFLCQRPDGALYGSLHFDPEACSFRERLLEDGYNVYQSEAHGLPLHCPGNKSPHRDPAPRGPCRFLPLPGLPPALPEPPGILAPQPPDVGSSDPLSMVGGSQGRSPSYES
- FGF21 activity (EC50, nM) (β-klotho (KLB)): 0.82 nM
- GCGR agonist activity (EC50, nM) (GCGR [1]): 38.1 nM
- GLP-1 R agonist activity (EC50, nM) (human GLP-1R [2]): 47.3 nM

B3: A175L1F9L5M2 (Fc fusion)
chain: YSEGTFTSDYSKYLDSQAAQDFVQWLLAGGPSSGAPPPSGGGGSGGGGSGGGGSA[letters of human IgG1 Fc with changes omitted]GGGGAGGGGAGGGGAHPIPDSSPLLQFGGQVRQRYLYTDDAQQTEAHLEIREDGTVGGAADQSPESLLQLKALKPGVIQILGVKTSRFLCQRPDGALYGSLHFDPEACSFRERLLEDGYNVYQSEAHGLPLHCPGNKSPHRDPAPRGPCRFLPLPGLPPALPEPPGILAPQPPDVGSSDPLSMVGGSQGRSPSYES
- FGF21 activity (EC50, nM) (β-klotho (KLB)): 0.71 nM
- GCGR agonist activity (EC50, nM) (GCGR [1]): 52.2 nM
- GLP-1 R agonist activity (EC50, nM) (human GLP-1R [2]): 42.3 nM

B4: A187L1F9L5M2 (Fc fusion)
chain: YSEGTFTSDYSKYLDEQAAQDFVQWLLDGGPSSGAPPPSGGGGSGGGGSGGGGSA[letters of human IgG1 Fc with changes omitted]GGGGAGGGGAGGGGAHPIPDSSPLLQFGGQVRQRYLYTDDAQQTEAHLEIREDGTVGGAADQSPESLLQLKALKPGVIQILGVKTSRFLCQRPDGALYGSLHFDPEACSFRERLLEDGYNVYQSEAHGLPLHCPGNKSPHRDPAPRGPCRFLPLPGLPPALPEPPGILAPQPPDVGSSDPLSMVGGSQGRSPSYES
- FGF21 activity (EC50, nM) (β-klotho (KLB)): 0.84 nM
- GCGR agonist activity (EC50, nM) (GCGR [1]): 36.4 nM
- GLP-1 R agonist activity (EC50, nM) (human GLP-1R [2]): 40.2 nM

B5: A209L1F9L5M2 (Fc fusion)
chain: YSEGTFTSDYSKYLDEQAAQDFVQWLLAGGPSSGAPPPSGGGGSGGGGSGGGGSA[letters of human IgG1 Fc with changes omitted]GGGGAGGGGAGGGGAHPIPDSSPLLQFGGQVRQRYLYTDDAQQTEAHLEIREDGTVGGAADQSPESLLQLKALKPGVIQILGVKTSRFLCQRPDGALYGSLHFDPEACSFRERLLEDGYNVYQSEAHGLPLHCPGNKSPHRDPAPRGPCRFLPLPGLPPALPEPPGILAPQPPDVGSSDPLSMVGGSQGRSPSYES
- FGF21 activity (EC50, nM) (β-klotho (KLB)): 1.67 nM
- GCGR agonist activity (EC50, nM) (GCGR [1]): 56.1 nM
- GLP-1 R agonist activity (EC50, nM) (human GLP-1R [2]): 51.4 nM

B6: A382L1F7L5M2 (Fc fusion)
chain: HSQGTFTSDYSKYLDSQAAQDFVQWLLDGGPSSGAPPPSGGGGSGGGGSGGGGSA[letters of human IgG4 Fc with S228P F234A L235A (EU numbers) omitted]GGGGAGGGGAGGGGAHPIPDSSPLLQFGGQVRQRYLYTDDAQQTEAHLEIREDGTVGGAADQSPESLLQLKALKPGVIQILGVKTSRFLCQRPDGALYGSLHFDPEACSFRERLLEDGYNVYQSEAHGLPLHCPGNKSPHRDPAPRGPCRFLPLPGLPPALPEPPGILAPQPPDVGSSDPLSMVGGSQGRSPSYES
- FGF21 activity (EC50, nM) (β-klotho (KLB)): 0.81 nM
- GCGR agonist activity (EC50, nM) (GCGR [1]): 1.35 nM
- GLP-1 R agonist activity (EC50, nM) (human GLP-1R [2]): 1.18 nM

B7: A137L1F7L5M2 (Fc fusion)
chain: YSEGTFTSDYSKYLDSQAAQDFVQWLLDGGPSSGAPPPSGGGGSGGGGSGGGGSA[letters of human IgG4 Fc with S228P F234A L235A (EU numbers) omitted]GGGGAGGGGAGGGGAHPIPDSSPLLQFGGQVRQRYLYTDDAQQTEAHLEIREDGTVGGAADQSPESLLQLKALKPGVIQILGVKTSRFLCQRPDGALYGSLHFDPEACSFRERLLEDGYNVYQSEAHGLPLHCPGNKSPHRDPAPRGPCRFLPLPGLPPALPEPPGILAPQPPDVGSSDPLSMVGGSQGRSPSYES
- FGF21 activity (EC50, nM) (β-klotho (KLB)): 0.71 nM
- GCGR agonist activity (EC50, nM) (GCGR [1]): 41.4 nM
- GLP-1 R agonist activity (EC50, nM) (human GLP-1R [2]): 37.5 nM

B8: A352L1F6L5M2 (Fc fusion)
chain: HSQGTFTSDYSKYLDSQAAQDFVQWLLAGGPSSGAPPPSGGGGSGGGGSGGGGSA[letters of human IgG4 Fc with S228P N297A (EU numbers) omitted]GGGGAGGGGAGGGGAHPIPDSSPLLQFGGQVRQRYLYTDDAQQTEAHLEIREDGTVGGAADQSPESLLQLKALKPGVIQILGVKTSRFLCQRPDGALYGSLHFDPEACSFRERLLEDGYNVYQSEAHGLPLHCPGNKSPHRDPAPRGPCRFLPLPGLPPALPEPPGILAPQPPDVGSSDPLSMVGGSQGRSPSYES
- FGF21 activity (EC50, nM) (β-klotho (KLB)): 0.85 nM
- GCGR agonist activity (EC50, nM) (GCGR [1]): 1.46 nM
- GLP-1 R agonist activity (EC50, nM) (human GLP-1R [2]): 1.67 nM

B9: A382L1F6L5M2 (Fc fusion)
chain: HSQGTFTSDYSKYLDSQAAQDFVQWLLDGGPSSGAPPPSGGGGSGGGGSGGGGSA[letters of human IgG4 Fc with S228P N297A (EU numbers) omitted]GGGGAGGGGAGGGGAHPIPDSSPLLQFGGQVRQRYLYTDDAQQTEAHLEIREDGTVGGAADQSPESLLQLKALKPGVIQILGVKTSRFLCQRPDGALYGSLHFDPEACSFRERLLEDGYNVYQSEAHGLPLHCPGNKSPHRDPAPRGPCRFLPLPGLPPALPEPPGILAPQPPDVGSSDPLSMVGGSQGRSPSYES
- FGF21 activity (EC50, nM) (β-klotho (KLB)): 1.54 nM
- GCGR agonist activity (EC50, nM) (GCGR [1]): 1.34 nM
- GLP-1 R agonist activity (EC50, nM) (human GLP-1R [2]): 1.21 nM

B10: A137L1F6L5M2 (Fc fusion)
chain: YSEGTFTSDYSKYLDSQAAQDFVQWLLDGGPSSGAPPPSGGGGSGGGGSGGGGSA[letters of human IgG4 Fc with S228P N297A (EU numbers) omitted]GGGGAGGGGAGGGGAHPIPDSSPLLQFGGQVRQRYLYTDDAQQTEAHLEIREDGTVGGAADQSPESLLQLKALKPGVIQILGVKTSRFLCQRPDGALYGSLHFDPEACSFRERLLEDGYNVYQSEAHGLPLHCPGNKSPHRDPAPRGPCRFLPLPGLPPALPEPPGILAPQPPDVGSSDPLSMVGGSQGRSPSYES
- FGF21 activity (EC50, nM) (β-klotho (KLB)): 0.79 nM
- GCGR agonist activity (EC50, nM) (GCGR [1]): 37.7 nM
- GLP-1 R agonist activity (EC50, nM) (human GLP-1R [2]): 51.9 nM

B11: A175L1F6L5M2 (Fc fusion)
chain: YSEGTFTSDYSKYLDSQAAQDFVQWLLAGGPSSGAPPPSGGGGSGGGGSGGGGSA[letters of human IgG4 Fc with S228P N297A (EU numbers) omitted]GGGGAGGGGAGGGGAHPIPDSSPLLQFGGQVRQRYLYTDDAQQTEAHLEIREDGTVGGAADQSPESLLQLKALKPGVIQILGVKTSRFLCQRPDGALYGSLHFDPEACSFRERLLEDGYNVYQSEAHGLPLHCPGNKSPHRDPAPRGPCRFLPLPGLPPALPEPPGILAPQPPDVGSSDPLSMVGGSQGRSPSYES
- FGF21 activity (EC50, nM) (β-klotho (KLB)): 0.73 nM
- GCGR agonist activity (EC50, nM) (GCGR [1]): 46.3 nM
- GLP-1 R agonist activity (EC50, nM) (human GLP-1R [2]): 48.9 nM

B12: A232L1F6 (Fc fusion)
chain: HSQGTFTSDYSKYLDEQAAQDFVQWLLAGGPSSGAPPPSGGGGSGGGGSGGGGSA[letters of human IgG4 Fc with S228P N297A (EU numbers) omitted]
- EC50 (nM) GCGR (GCGR [3]): 1.45 nM
- EC50 (nM) GLP-1R (human GLP-1R [4]): 2.79 nM

B13: A352L1F6 (Fc fusion)
chain: HSQGTFTSDYSKYLDSQAAQDFVQWLLAGGPSSGAPPPSGGGGSGGGGSGGGGSA[letters of human IgG4 Fc with S228P N297A (EU numbers) omitted]
- EC50 (nM) GCGR (GCGR [3]): 1.44 nM
- EC50 (nM) GLP-1R (human GLP-1R [4]): 1.7 nM

B14: A382L1F6 (Fc fusion)
chain: HSQGTFTSDYSKYLDSQAAQDFVQWLLDGGPSSGAPPPSGGGGSGGGGSGGGGSA[letters of human IgG4 Fc with S228P N297A (EU numbers) omitted]
- EC50 (nM) GCGR (GCGR [3]): 1.67 nM
- EC50 (nM) GLP-1R (human GLP-1R [4]): 1.74 nM

B15: A395L1F6 (Fc fusion)
chain: HSQGTFTSDYSKYLDEEAAQDFVQWLLAGGPSSGAPPPSGGGGSGGGGSGGGGSA[letters of human IgG4 Fc with S228P N297A (EU numbers) omitted]
- EC50 (nM) GCGR (GCGR [3]): 1.23 nM
- EC50 (nM) GLP-1R (human GLP-1R [4]): 1.74 nM

B16: A402L1F6 (Fc fusion)
chain: HSQGTFTSDYSKYLDEEAAQDFVQWLLDGGPSSGAPPPSGGGGSGGGGSGGGGSA[letters of human IgG4 Fc with S228P N297A (EU numbers) omitted]
- EC50 (nM) GCGR (GCGR [3]): 1.32 nM
- EC50 (nM) GLP-1R (human GLP-1R [4]): 1.85 nM

B17: A382L1F9L5M2 (Fc fusion)
chain: HSQGTFTSDYSKYLDSQAAQDFVQWLLDGGPSSGAPPPSGGGGSGGGGSGGGGSA[letters of human IgG1 Fc with changes omitted]GGGGAGGGGAGGGGAHPIPDSSPLLQFGGQVRQRYLYTDDAQQTEAHLEIREDGTVGGAADQSPESLLQLKALKPGVIQILGVKTSRFLCQRPDGALYGSLHFDPEACSFRERLLEDGYNVYQSEAHGLPLHCPGNKSPHRDPAPRGPCRFLPLPGLPPALPEPPGILAPQPPDVGSSDPLSMVGGSQGRSPSYES
- FGF21 activity (EC50, nM) (β-klotho (KLB)): 0.77 nM
- GCGR agonist activity (EC50, nM) (GCGR [1]): 1.16 nM
- GLP-1 R agonist activity (EC50, nM) (human GLP-1R [2]): 1.26 nM
